Measurements taken from PMC10220053.
Positions count from the first letter of the chain named. In names and notes the source's numbering stands. Results are given in words; binding and its absence hold for the method and conditions named. For some of these results: Binding seen in cells or lysates may run through a third protein. Some entries that bind do so weakly or less than the wild type. Blank lines part the entries; values can stand above or below the binder they belong to.

The chains behind the UniProt entries cited, without tags or fusion partners. Residues count along the entry.
UniProt Q12432, residues 218-401: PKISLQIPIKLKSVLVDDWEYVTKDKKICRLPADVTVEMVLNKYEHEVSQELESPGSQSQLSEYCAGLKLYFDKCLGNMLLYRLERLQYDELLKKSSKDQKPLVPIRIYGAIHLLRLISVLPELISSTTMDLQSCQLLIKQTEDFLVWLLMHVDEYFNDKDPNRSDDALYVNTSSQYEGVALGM

Assays:
[1] = target: C-terminal MRG domain of Eaf3 (Eaf3^MRG, aa 218–401) (S. cerevisiae) (UniProt Q12432); assay: pull-down; GST pull-down / affinity pull-down of Eaf3^MRG (wild type and mutants) with Rco1^PHD1–SID (wild type, mutants, truncation); which partner carried GST is not told
[2] = target: C-terminal MRG domain of Eaf3 (Eaf3^MRG, aa 218–401) (S. cerevisiae) (UniProt Q12432); assay: pull-down; GST pull-down of Eaf7^108–143 (wild type and mutants) with Eaf3^MRG (wild type and mutants); which partner carried GST is not told
[3] = target: Eaf3^MRG–Rco1^PHD1–SID complex (S. cerevisiae) (UniProt Q12432+Q04779); assay: ITC; SUMO–Eaf7^108–143 or SUMO alone with Eaf3^MRG or the Eaf3^MRG–Rco1^PHD1–SID complex; both purified

binding [1]: no binding
B1: truncated form of Rco1^PHD1–SID (Rco1^240–313) (domain or fragment, UniProt Q04779 240-313)
chain: SNASEKIFRDKNNSTIDFENEDFCSACNQSGSFLCCDTCPKSFHFLCLDPPIDPNNLPKGDWHCNECKFKIFIN

binding [2]: no binding
B3: Eaf7^108–143 L127A (domain or fragment, UniProt P53911 108-143)
chain: EETLLELNNRIRVRKQDFTAPWEEYGELILENARKS

binding [3]: no binding
B4: SUMO–Eaf7^108–143 (domain or fragment, UniProt P53911 108-143)
chain: B3 chain with A20L

binding [2]: binds
B6: Eaf7^108–143 R121A (domain or fragment, UniProt P53911 108-143)
chain: B3 chain with R14A, A20L

binding [1]: binds
B10: Rco1^PHD1–SID I335A/F336A/L339A (domain or fragment, UniProt Q04779 240-376)
chain: SNASEKIFRDKNNSTIDFENEDFCSACNQSGSFLCCDTCPKSFHFLCLDPPIDPNNLPKGDWHCNECKFKIFINNSMATLKKIESNFIKQNNNVKAAAKALFNIDSHNPKQFQLPNYIKETFPAVKTGSRGQYSDEN

Second part, the binder before the results:

B2: Eaf7^108–143 L114A (domain or fragment, UniProt P53911 108-143)
chain: B3 chain with L7A, A20L
binding [2]: binds

B5: Eaf7^108–143 I118A (domain or fragment, UniProt P53911 108-143)
chain: B3 chain with I11A, A20L
binding [2]: binds

B7: Eaf7^108–143 D124A (domain or fragment, UniProt P53911 108-143)
chain: B3 chain with D17A, A20L
binding [2]: binds

B8: Eaf7^108–143 F125A (domain or fragment, UniProt P53911 108-143)
chain: B3 chain with F18A, A20L
binding [2]: no binding

B9: Eaf7^108–143 E131A (domain or fragment, UniProt P53911 108-143)
chain: B3 chain with A20L, E24A
binding [2]: binds
